This is one part of the list. At the low end of the ranking the order means little.

This assay addresses T1, GST-Rok (full length) (UniProt O34857).
T1 sequence: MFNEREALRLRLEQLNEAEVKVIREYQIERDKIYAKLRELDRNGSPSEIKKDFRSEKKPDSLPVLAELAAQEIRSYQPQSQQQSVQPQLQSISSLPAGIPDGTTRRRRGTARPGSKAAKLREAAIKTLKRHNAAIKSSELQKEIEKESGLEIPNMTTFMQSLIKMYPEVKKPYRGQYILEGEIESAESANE
Put plainly: protein binding microarray.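 Note: rank score from −0.5 (least bound) to 0.5 (best bound).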 The conditions noted are these: Rok is a gene silencer of Bacillus subtilis; high values mean tight binding; most listed sequences are background and not binding sites; double strand, one strand shown.
As to AGCCCGTA, the binding signal is -0.204 E-score.
In the case of AAGAACAT, the binding signal was determined as 0.0933 E-score.
Sequence GTATCCAA showed a binding signal of 0.0504 E-score.
GCTGTCCA came in with a binding signal of -0.245 E-score.
For the sequence CCATGATC, the binding signal is -0.0637 E-score.
With CATGGCAG, the binding signal is -0.369 E-score.
Consider AATTAGCG, for which the binding signal was determined as 0.221 E-score.
Under CCTCCATA stands 0.0365 E-score.
CGGGTCTC: the binding signal is -0.0801 E-score.
As for GGGATCCA, the figure is -0.281 E-score; as for AGTAAAGG, -0.0609 E-score; as for AATCACGA, 0.123 E-score.
AGGCTGTG returned a binding signal of -0.235 E-score.
In turn, ACAAACCC displayed a binding signal of -0.097 E-score.
In the case of GTCGTATA, the binding signal came to 0.119 E-score.
In turn, AACATTAA came in with a binding signal of 0.133 E-score.
Under CCTACTCG stands 0.00815 E-score.
As for CAACCCGG, the binding signal was -0.234 E-score.
Sequence CATGGAGG returned a binding signal of -0.183 E-score.
With GTACGTCA, the binding signal was -0.0304 E-score.
Sequence ATGTGACG showed a binding signal of -0.0759 E-score.
Consider AGGATAGG, for which the binding signal was found to be 0.102 E-score.
As for CGGATGAA, the binding signal worked out at 0.00168 E-score.
Under ACTTATCA stands 0.19 E-score.
With CCGCGCCC, the binding signal was -0.249 E-score.
As for GTGACCAC, the figure is -0.142 E-score; as for AGGCACGG, -0.21 E-score; as for ACGAAGTA, 0.0217 E-score.
On to AGTCAGTG, for which the binding signal is -0.0338 E-score.
CACTTTTA came in with a binding signal of 0.152 E-score.
The sequence GCGCTGAA registered a binding signal of -0.0849 E-score.
Under AAGTGGTG stands 0.111 E-score; under AAGACGCA, -0.00401 E-score; under GTCTGCCA, -0.128 E-score.
AGAGTATA: the binding signal is 0.247 E-score.
As for GTAGATAC, the figure is 0.359 E-score; as for ATGAGTAC, 0.222 E-score.
Under CCCCTCCG stands -0.331 E-score; under GGCACTAC, -0.0484 E-score; under GACCATGA, -0.103 E-score.
The sequence ATTTGACA displayed a binding signal of 0.191 E-score.
As for AGCAGGAC, the binding signal was -0.185 E-score.
Regarding AGGTCGAT, the binding signal is -0.00634 E-score.
Under AATTAACC stands 0.205 E-score.
Regarding CTCCCCTC, the binding signal is -0.356 E-score.
The sequence AGATCAAT came in with a binding signal of 0.0403 E-score.
GACTTGTA: the binding signal was determined as 0.0616 E-score.
In turn, AATGACGG had a binding signal of 0.0382 E-score.
As for GACAGAGA, the binding signal was -0.0968 E-score.
For the sequence CAAGTATG, the binding signal came to 0.15 E-score.
As for CCTCGGAA, the binding signal is 0.0565 E-score.
In the case of ATTTCACA, the binding signal is 0.0791 E-score.
GCGTCGAC had a binding signal of -0.172 E-score.
In turn, ATATTACA registered a binding signal of 0.317 E-score.
The sequence AACCGGTC had a binding signal of -0.173 E-score.
On to CGCAAACC, for which the binding signal is -0.0383 E-score.
As for TAGGAAAA, the binding signal was -0.0265 E-score.
CAGATACG returned a binding signal of -0.0438 E-score.
Take AACTACTT: the binding signal amounted to 0.418 E-score.
The sequence CGATCGGC yielded a binding signal of -0.277 E-score.
In the case of AGATCAAC, the binding signal was -0.0203 E-score.
As for CCTTGCTA, the figure is 0.046 E-score; as for ATGCAGCG, 0.00672 E-score; as for GTTCTCGA, 0.159 E-score.
Take CATCAACA: the binding signal was determined as 0.0458 E-score.
For GAGAGCAC, the binding signal was -0.18 E-score.
For GTATGGTA, the binding signal turned out to be 0.282 E-score.
CCGCGACG: the binding signal was -0.343 E-score.
As for AAGGCGGA, the binding signal was -0.256 E-score.
As for CAAAATGG, the figure is -0.106 E-score; as for GTACACGA, 0.122 E-score; as for CGCCCTTC, -0.426 E-score.
Take GCGCTTCA: the binding signal is -0.0884 E-score.
Under ATCTGTCC stands 0.14 E-score; under CCGCCGCG, -0.309 E-score; under TGACCTAA, 0.139 E-score.
Under AGTCGGAG stands -0.0981 E-score; under ACAACTGT, 0.0667 E-score.
In turn, ACCTCCCC yielded a binding signal of -0.357 E-score.
In turn, GAAATCAA yielded a binding signal of 0.0917 E-score.
The sequence CGAGCGCG displayed a binding signal of -0.137 E-score.
With ACCGCGCT, the binding signal is -0.0144 E-score.
AAGAGATT registered a binding signal of -0.0282 E-score.
Consider GAATTAGC, for which the binding signal is 0.266 E-score.
Under CGTGGATC stands -0.0805 E-score; under GGGGGTAA, -0.317 E-score.
As for CAAGAAAA, the figure is -0.0182 E-score; as for TCAGCGGA, -0.0336 E-score.
AAGCGATA had a binding signal of 0.105 E-score.
In turn, GACACATC displayed a binding signal of 0.0187 E-score.
As for CACCTCCG, the figure is -0.215 E-score; as for CAACCTAG, -0.0348 E-score; as for ACTGAGAT, 0.0223 E-score.
Sequence ATTCCATA had a binding signal of 0.223 E-score.
As for GCGCGGAC, the figure is -0.116 E-score.
The sequence CTGAAAAC gave a binding signal of -0.1 E-score.
With AAATGGGA, the binding signal is -0.0385 E-score.
On to AAAGACTC, for which the binding signal is -0.0693 E-score.
The sequence ATATGGCC returned a binding signal of -0.00121 E-score.
With CCGGCACA, the binding signal was -0.19 E-score.
With ACCCCGCC, the binding signal is -0.285 E-score.
As for ACGAACAC, the figure is 0.00736 E-score; as for TAAAAGCA, 0.143 E-score.
With ACTCAAAA, the binding signal was found to be 0.131 E-score.
GCTCGCTA had a binding signal of 0.043 E-score.
Under ACACTTTG stands -0.222 E-score; under AGTGCTAT, 0.0907 E-score.
For CTCACGTC, the binding signal was -0.0878 E-score.
For GCTTACAC, the binding signal is -0.0416 E-score.

The values are drawn from publication PMC6212790.
